# Counter-ions that a name gives are not always drawn. ± gives the standard deviation of the averaged measurements. This is one part of the list.
# Legend:
# Conditions in all cases: priming compound concentration 100 µM
# hAMSC donor 1 [1] = assay: Hoechst total cell count ratio vs vehicle control; higher = more cells (less toxicity)
# hAMSC donor 2 [2] = assay: as above
# hAMSC donor 1 [3] = assay: transgenic luciferase activity (RLU/mg protein) fold change vs vehicle control (ratio); higher = more transgene expression
# hAMSC donor 2 [4] = assay: as above
# hAMSC donor 1 [5] = assay: transfection efficiency (EGFP+ cells / Hoechst count) fold change vs vehicle control (ratio); hAMSC are human adipose-derived mesenchymal stem cells given an EGFP-luciferase plasmid by lipofection; higher = enhanced transfection
# hAMSC donor 2 [6] = assay: as above
# 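For Hoechst total cell count ratio vs vehicle control in this document: compound added 30 min before Lipofectamine 3000 lipoplex delivery, triplicate-well means expressed against DMSO vehicle control wells of the same 96-well plate.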
# 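For transfection efficiency (EGFP+ cells / Hoechst count) fold change vs vehicle control in this document: compounds added 30 min before Lipofectamine 3000 lipoplex transfection, triplicate means relative to DMSO vehicle wells on the same plate, luciferase RLU normalized to BCA total protein.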
# 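For transgenic luciferase activity (RLU/mg protein) fold change vs vehicle control in this document: compounds in DMSO added 30 min before Lipofectamine 3000 transfection of pEGFP-Luc in 96-well plates, values are means of triplicate wells over DMSO vehicle wells on the same plate.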
compound,measurement,setting,value
CCN1CC(CCN2CCOCC2)C(c2ccccc2)(c2ccccc2)C1=O (centres undefined) [Doxapram hydrochloride],Hoechst total cell count ratio,hAMSC donor 1 [1],1.16 ± 0.083
same,Hoechst total cell count ratio,hAMSC donor 2 [2],1.71 ± 0.4
same,transgenic luciferase activity,hAMSC donor 1 [3],0.638 ± 0.12
same,transgenic luciferase activity,hAMSC donor 2 [4],0.644 ± 0.035
same,transfection efficiency,hAMSC donor 1 [5],0.674 ± 0.13
same,transfection efficiency,hAMSC donor 2 [6],0.704 ± 0.1
CNNCc1ccc(C(=O)NC(C)C)cc1 [Procarbazine hydrochloride],Hoechst total cell count ratio,hAMSC donor 1 [1],1.33 ± 0.29
same,Hoechst total cell count ratio,hAMSC donor 2 [2],1.25 ± 0.079
same,transgenic luciferase activity,hAMSC donor 1 [3],1.24 ± 0.31
same,transgenic luciferase activity,hAMSC donor 2 [4],0.678 ± 0.066
same,transfection efficiency,hAMSC donor 1 [5],1.14 ± 0.12
same,transfection efficiency,hAMSC donor 2 [6],0.726 ± 0.057
Cc1c(OCC(F)(F)F)ccnc1C[S+]([O-])c1nc2ccccc2[nH]1 (centres undefined) [Lansoprazole],Hoechst total cell count ratio,hAMSC donor 1 [1],1.79 ± 0.27
same,Hoechst total cell count ratio,hAMSC donor 2 [2],1.17 ± 0.038
same,transgenic luciferase activity,hAMSC donor 1 [3],2.02 ± 0.86
same,transgenic luciferase activity,hAMSC donor 2 [4],1.58 ± 0.24
same,transfection efficiency,hAMSC donor 1 [5],1.03 ± 0.2
same,transfection efficiency,hAMSC donor 2 [6],0.734 ± 0.051
COc1cc(/C=C/c2ccc(O)cc2)cc(OC)c1 [Pterostilbene],Hoechst total cell count ratio,hAMSC donor 1 [1],0.93 ± 0.015
same,Hoechst total cell count ratio,hAMSC donor 2 [2],0.574 ± 0.14
same,transgenic luciferase activity,hAMSC donor 1 [3],0.982 ± 0.14
same,transgenic luciferase activity,hAMSC donor 2 [4],2.23 ± 0.091
same,transfection efficiency,hAMSC donor 1 [5],2.68 ± 0.68
same,transfection efficiency,hAMSC donor 2 [6],1.6 ± 0.29
CC(=O)[C@@]1(O)CC[C@H]2[C@@H]3C[C@H](C)C4=CC(=O)C=C[C@]4(C)[C@@]3(F)[C@@H](O)C[C@@]21C [Fluorometholone],Hoechst total cell count ratio,hAMSC donor 1 [1],1.19 ± 0.046
same,Hoechst total cell count ratio,hAMSC donor 2 [2],0.989 ± 0.12
same,transgenic luciferase activity,hAMSC donor 1 [3],12.8 ± 11
same,transgenic luciferase activity,hAMSC donor 2 [4],6.27 ± 1.2
same,transfection efficiency,hAMSC donor 1 [5],3.57 ± 0.42
same,transfection efficiency,hAMSC donor 2 [6],2.91 ± 0.34
Cc1ccc(N(CC2=NCCN2)c2cccc(O)c2)cc1 [Phentolamine mono-hydrochloride],Hoechst total cell count ratio,hAMSC donor 1 [1],1.38 ± 0.12
same,Hoechst total cell count ratio,hAMSC donor 2 [2],1.39 ± 0.095
same,transgenic luciferase activity,hAMSC donor 1 [3],0.291 ± 0.094
same,transgenic luciferase activity,hAMSC donor 2 [4],0.58 ± 0.039
same,transfection efficiency,hAMSC donor 1 [5],0.901 ± 0.11
same,transfection efficiency,hAMSC donor 2 [6],1.24 ± 0.14
Cc1cccc(C)c1OCC(C)N (centres undefined) [Mexiletine hydrochloride],Hoechst total cell count ratio,hAMSC donor 1 [1],1.09 ± 0.012
same,Hoechst total cell count ratio,hAMSC donor 2 [2],1.21 ± 0.1
same,transgenic luciferase activity,hAMSC donor 1 [3],3.54 ± 0.3
same,transgenic luciferase activity,hAMSC donor 2 [4],1.48 ± 0.49
same,transfection efficiency,hAMSC donor 1 [5],1.36 ± 0.73
same,transfection efficiency,hAMSC donor 2 [6],1.37 ± 0.32
COc1ccc(-c2cc(=O)c3c(OC)c(OC)c(OC)c(OC)c3o2)cc1OC [Nobiletin],Hoechst total cell count ratio,hAMSC donor 1 [1],1.29 ± 0.016
same,Hoechst total cell count ratio,hAMSC donor 2 [2],2.588 ± 0.016
same,transgenic luciferase activity,hAMSC donor 1 [3],1.06 ± 0.25
same,transgenic luciferase activity,hAMSC donor 2 [4],0.856 ± 0.25
same,transfection efficiency,hAMSC donor 1 [5],0.85 ± 0.17
same,transfection efficiency,hAMSC donor 2 [6],0.742 ± 0.14
Clc1ccc(COC(Cn2ccnc2)c2ccc(Cl)cc2Cl)cc1 (centres undefined) [Econazole nitrate],Hoechst total cell count ratio,hAMSC donor 1 [1],0.203 ± 0.13
same,Hoechst total cell count ratio,hAMSC donor 2 [2],0.122 ± 0.029
same,transgenic luciferase activity,hAMSC donor 1 [3],0.00838 ± 0.0016
same,transgenic luciferase activity,hAMSC donor 2 [4],0.00142 ± 0.0011
same,transfection efficiency,hAMSC donor 1 [5],2.24 ± 0.28
same,transfection efficiency,hAMSC donor 2 [6],0.112 ± 0.19
CCC(=O)NS(=O)(=O)c1ccc(-c2c(-c3ccccc3)noc2C)cc1 [Parecoxib sodium],Hoechst total cell count ratio,hAMSC donor 1 [1],0.858 ± 0.12
same,Hoechst total cell count ratio,hAMSC donor 2 [2],0.556 ± 0.096
same,transgenic luciferase activity,hAMSC donor 1 [3],0.573 ± 0.12
same,transgenic luciferase activity,hAMSC donor 2 [4],1.44 ± 0.45
same,transfection efficiency,hAMSC donor 1 [5],1.52 ± 0.28
same,transfection efficiency,hAMSC donor 2 [6],1.87 ± 0.13
CN1CCc2cc(Cl)c(O)cc2[C@@H](c2ccccc2)C1,Hoechst total cell count ratio,hAMSC donor 1 [1],1.42 ± 0.2
same,Hoechst total cell count ratio,hAMSC donor 2 [2],1.17 ± 0.21
same,transgenic luciferase activity,hAMSC donor 1 [3],1.52 ± 0.77
same,transgenic luciferase activity,hAMSC donor 2 [4],0.7 ± 0.18
same,transfection efficiency,hAMSC donor 1 [5],1.01 ± 0.19
same,transfection efficiency,hAMSC donor 2 [6],0.636 ± 0.1
C=C1/C(=C\C=C2/CCC[C@]3(C)[C@@H]([C@H](C)CCCC(C)(C)O)CC[C@@H]23)C[C@@H](O)C[C@@H]1O [Calcitriol],Hoechst total cell count ratio,hAMSC donor 1 [1],0.734 ± 0.081
same,Hoechst total cell count ratio,hAMSC donor 2 [2],0.742 ± 0.1
same,transgenic luciferase activity,hAMSC donor 1 [3],0.575 ± 0.24
same,transgenic luciferase activity,hAMSC donor 2 [4],2.03 ± 0.42
same,transfection efficiency,hAMSC donor 1 [5],0.884 ± 0.28
same,transfection efficiency,hAMSC donor 2 [6],0.994 ± 0.16
O=C(O)/C=C/c1ccc(Cn2ccnc2)cc1 [Ozagrel hydrochloride],Hoechst total cell count ratio,hAMSC donor 1 [1],1.21 ± 0.13
same,Hoechst total cell count ratio,hAMSC donor 2 [2],1.18 ± 0.018
same,transgenic luciferase activity,hAMSC donor 1 [3],0.266 ± 0.24
same,transgenic luciferase activity,hAMSC donor 2 [4],0.606 ± 0.088
same,transfection efficiency,hAMSC donor 1 [5],1.17 ± 0.14
same,transfection efficiency,hAMSC donor 2 [6],0.803 ± 0.1
CCCCN1CCCC1CNC(=O)c1cc(C#N)c2ccccc2c1OC (centres undefined) [Nafadotride],Hoechst total cell count ratio,hAMSC donor 1 [1],1.16 ± 0.066
same,Hoechst total cell count ratio,hAMSC donor 2 [2],1.01 ± 0.064
same,transgenic luciferase activity,hAMSC donor 1 [3],0.134 ± 0.078
same,transgenic luciferase activity,hAMSC donor 2 [4],0.892 ± 0.074
same,transfection efficiency,hAMSC donor 1 [5],0.964 ± 0.46
same,transfection efficiency,hAMSC donor 2 [6],1.18 ± 0.23
CN(C)CCC[C@@]1(c2ccc(F)cc2)OCc2cc(C#N)ccc21 [Escitalopram oxalate],Hoechst total cell count ratio,hAMSC donor 1 [1],1.08 ± 0.053
same,Hoechst total cell count ratio,hAMSC donor 2 [2],0.833 ± 0.072
same,transgenic luciferase activity,hAMSC donor 1 [3],0.711 ± 0.2
same,transgenic luciferase activity,hAMSC donor 2 [4],0.451 ± 0.083
same,transfection efficiency,hAMSC donor 1 [5],1.46 ± 0.42
same,transfection efficiency,hAMSC donor 2 [6],1.1 ± 0.15
CC(C(=O)O)c1ccc(-c2ccccc2)c(F)c1 (centres undefined) [Flurbiprofen],Hoechst total cell count ratio,hAMSC donor 1 [1],1.44 ± 0.052
same,Hoechst total cell count ratio,hAMSC donor 2 [2],1.44 ± 0.26
same,transgenic luciferase activity,hAMSC donor 1 [3],1.05 ± 0.58
same,transgenic luciferase activity,hAMSC donor 2 [4],1.08 ± 0.13
same,transfection efficiency,hAMSC donor 1 [5],0.798 ± 0.17
same,transfection efficiency,hAMSC donor 2 [6],0.766 ± 0.24
Cc1c(O)cccc1C(=O)N[C@@H](CSc1ccccc1)[C@H](O)CN1C[C@H]2CCCC[C@H]2C[C@H]1C(=O)NC(C)(C)C [Nelfinavir mesylate],Hoechst total cell count ratio,hAMSC donor 1 [1],0.516 ± 0.071
same,Hoechst total cell count ratio,hAMSC donor 2 [2],0.252 ± 0.024
same,transgenic luciferase activity,hAMSC donor 1 [3],0.409 ± 0.11
same,transgenic luciferase activity,hAMSC donor 2 [4],2.02 ± 0.84
same,transfection efficiency,hAMSC donor 1 [5],0.57 ± 0.073
same,transfection efficiency,hAMSC donor 2 [6],1.19 ± 0.26
CC(=O)OCC(=O)[C@@]1(O)CC[C@H]2[C@@H]3CCC4=CC(=O)C=C[C@]4(C)[C@H]3[C@@H](O)C[C@@]21C [Prednisolone acetate],Hoechst total cell count ratio,hAMSC donor 1 [1],1.57 ± 0.25
same,Hoechst total cell count ratio,hAMSC donor 2 [2],1.87 ± 0.13
same,transgenic luciferase activity,hAMSC donor 1 [3],3.17 ± 1.9
same,transgenic luciferase activity,hAMSC donor 2 [4],0.593 ± 0.19
same,transfection efficiency,hAMSC donor 1 [5],1.62 ± 0.36
same,transfection efficiency,hAMSC donor 2 [6],1.32 ± 0.14
CCCCCCNC(=O)n1cc(F)c(=O)[nH]c1=O [Carmofur],Hoechst total cell count ratio,hAMSC donor 1 [1],1.11 ± 0.19
same,Hoechst total cell count ratio,hAMSC donor 2 [2],0.471 ± 0.073
same,transgenic luciferase activity,hAMSC donor 1 [3],0.328 ± 0.28
same,transgenic luciferase activity,hAMSC donor 2 [4],1.05 ± 0.63
same,transfection efficiency,hAMSC donor 1 [5],1.42 ± 0.59
same,transfection efficiency,hAMSC donor 2 [6],1.09 ± 0.24
CN(C)CCC(c1ccc(Cl)cc1)c1ccccn1 (centres undefined) [Chlorpheniramine maleate],Hoechst total cell count ratio,hAMSC donor 1 [1],1.28 ± 0.065
same,Hoechst total cell count ratio,hAMSC donor 2 [2],1.237 ± 0.011
same,transgenic luciferase activity,hAMSC donor 1 [3],0.357 ± 0.017
same,transgenic luciferase activity,hAMSC donor 2 [4],0.286 ± 0.1
same,transfection efficiency,hAMSC donor 1 [5],0.778 ± 0.018
same,transfection efficiency,hAMSC donor 2 [6],0.712 ± 0.17
O=C1CN(/N=C/c2ccc([N+](=O)[O-])o2)C(=O)N1 [Nitrofurantoin],Hoechst total cell count ratio,hAMSC donor 1 [1],1.24 ± 0.38
same,Hoechst total cell count ratio,hAMSC donor 2 [2],1.11 ± 0.38
same,transgenic luciferase activity,hAMSC donor 1 [3],0.745 ± 0.5
same,transgenic luciferase activity,hAMSC donor 2 [4],0.307 ± 0.067
same,transfection efficiency,hAMSC donor 1 [5],1.48 ± 0.52
same,transfection efficiency,hAMSC donor 2 [6],0.879 ± 0.12
CN(C)c1nc(N(C)C)nc(N(C)C)n1 [Altretamine],Hoechst total cell count ratio,hAMSC donor 1 [1],1.11 ± 0.18
same,Hoechst total cell count ratio,hAMSC donor 2 [2],1.55 ± 0.2
same,transgenic luciferase activity,hAMSC donor 1 [3],2.01 ± 0.59
same,transgenic luciferase activity,hAMSC donor 2 [4],0.621 ± 0.056
same,transfection efficiency,hAMSC donor 1 [5],0.917 ± 0.09
same,transfection efficiency,hAMSC donor 2 [6],0.957 ± 0.14
COCc1c(C(C)C)nc(C(C)C)c(/C=C/[C@@H](O)C[C@@H](O)CC(=O)O)c1-c1ccc(F)cc1 [Cerivastatin sodium],Hoechst total cell count ratio,hAMSC donor 1 [1],0.521 ± 0.22
same,Hoechst total cell count ratio,hAMSC donor 2 [2],0.642 ± 0.085
same,transgenic luciferase activity,hAMSC donor 1 [3],0.891 ± 0.51
same,transgenic luciferase activity,hAMSC donor 2 [4],0.714 ± 0.13
same,transfection efficiency,hAMSC donor 1 [5],3.14 ± 0.94
same,transfection efficiency,hAMSC donor 2 [6],1.45 ± 0.065
CO[C@H]1/C=C/O[C@@]2(C)Oc3c(C)c(O)c4c(O)c(c5c(nc6cc(C)ccn65)c4c3C2=O)NC(=O)/C(C)=C\C=C\[C@H](C)[C@H](O)[C@@H](C)[C@@H](O)[C@@H](C)[C@H](OC(C)=O)[C@@H]1C [Rifaximin],Hoechst total cell count ratio,hAMSC donor 1 [1],0.964 ± 0.15
same,Hoechst total cell count ratio,hAMSC donor 2 [2],0.873 ± 0.12
same,transgenic luciferase activity,hAMSC donor 1 [3],1.52 ± 0.3
same,transgenic luciferase activity,hAMSC donor 2 [4],1.46 ± 0.17
same,transfection efficiency,hAMSC donor 1 [5],0.795 ± 0.16
same,transfection efficiency,hAMSC donor 2 [6],0.988 ± 0.1

# Reference: the supplement of paper PMC7238544
